Laboratory results: patent publication US12274759B2, “Affibody proteins specific for B7-H3 (CD276)” (THE BOARD OF TRUSTEES OF THE LELAND STANFORD JUNIOR …, priority 2018, dated 2025)

Legend:
[1] = biological target: T1, mB7-H3 (RAW264.7 cells) (Mus musculus, UniProt Q8VE98); assay: Flow cytometry binding to RAW264.7 mouse monocyte cell line; settings: Example 3
T1 construct: endogenous in cells; host or cells: RAW264.7 mouse monocyte cell line
T1 sequence (Q8VE98 29-316): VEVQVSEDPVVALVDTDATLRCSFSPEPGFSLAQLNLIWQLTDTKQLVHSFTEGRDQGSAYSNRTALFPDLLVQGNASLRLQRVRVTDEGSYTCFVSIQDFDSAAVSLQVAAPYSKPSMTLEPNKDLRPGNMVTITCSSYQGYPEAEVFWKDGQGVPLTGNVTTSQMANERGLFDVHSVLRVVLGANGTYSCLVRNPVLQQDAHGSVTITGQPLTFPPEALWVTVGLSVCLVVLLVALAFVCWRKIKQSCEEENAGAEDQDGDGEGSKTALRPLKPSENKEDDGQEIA
From the text: (§1) FIG. 10. ABYB7-H3 binds to B7-H3-positive cells with high specificity in vitro. (A) Human B7-H3 protein overexpression in the cell lysate of stably transfected murine endothelial cells, MS1hB7-H3, compared to that of MS1 wild-type (MS1WT) cells by western blot with fluorescent detection. CD31 is an endothelial cell-specific maker and actin β is a protein loading control. Numbers below the protein bands indicate radiance (p/sec/cm^2/sr) of the expressed proteins. (B) Left panel: Histogram showing cell-surface hB7-H3 receptor expression in MS1hB7-H3 cells compared to MS1WT r by flow cytometry using anti-hB7-H3-APC antibody (Ab) or no antibody control (Ctl,). Right panels: Biotin- ABYB7-H3 (10 μM) binding specifically to MS1hB7-H3 cells but not the MS1WT cells as detected by streptavidin-AF647 dye. (C) Cell surface staining of endogenous mB7-H3 in the mouse monocyte cell line, RAW264.7, using anti-mB7-H3 antibody compared to IgG control (Ctl.) antibody; histogram representation of biotin-ABYB7-H3 (10 μM) binding to cells. […] Unstained control (Ctl.) cells used as reference. (E) Immunofluorescence staining with ABYBY-H3-AF647 (red) and a nuclear marker, DAPI (blue), in a human breast tumor and normal breast tissue sections. Scale bar represents 100 μm. Zoomed images of insets are shown on the right panel.
(§2) ABYB7-H3 binds specifically to B7-H3. […]

[2] = biological target: T2, recombinant soluble human B7-H3 ectodomain protein (Homo sapiens, UniProt Q5ZPR3); assay: Streptavidin bead binding to recombinant soluble human B7-H3 ectodomain by flow cytometry; settings: ligand immobilized to streptavidin magnetic beads; 3 μM recombinant soluble human B7-H3 ectodomain
T2 construct: incubated with 3 μM of recombinant soluble human B7-H3 ectodomain protein
T2 sequence (Q5ZPR3 29-466 limits assumed): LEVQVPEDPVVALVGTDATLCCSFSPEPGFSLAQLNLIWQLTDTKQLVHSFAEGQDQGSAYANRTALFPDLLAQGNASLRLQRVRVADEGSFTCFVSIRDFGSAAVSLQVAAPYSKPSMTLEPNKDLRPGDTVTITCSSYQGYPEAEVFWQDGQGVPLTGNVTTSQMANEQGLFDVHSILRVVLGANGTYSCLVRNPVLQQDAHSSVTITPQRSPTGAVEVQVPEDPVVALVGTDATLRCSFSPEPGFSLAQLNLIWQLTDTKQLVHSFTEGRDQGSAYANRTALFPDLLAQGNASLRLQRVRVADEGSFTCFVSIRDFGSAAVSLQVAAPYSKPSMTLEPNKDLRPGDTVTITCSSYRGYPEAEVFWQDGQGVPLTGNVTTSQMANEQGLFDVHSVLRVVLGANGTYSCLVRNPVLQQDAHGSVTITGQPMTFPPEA
From the text: FIG. 9. Production and validation of ABYB7-H3.(A) Left panel: Commassie Blue staining of SDS-PAGE showing high purity and expected size (7,490 Da) of finalized ABYB7-H3 produced in E. Coli. Right panel: Mass spectrometric analysis of ABYB7-H3 showing a mass-to-charge peak (m/z=7,546) corresponding to ABY molecular weight. A doubly charged peak (m/z=3763) is also present. Amino acid sequence of ABYB7-H3 (SEQ ID NO:28) is shown on the bottom. (B) Flow cytometry of biotin-ABYB7-H3 conjugated streptavidin-microbeads complex showing binding to soluble recombinant B7-H3 (3 μM) as detected by APC conjugated anti-B7-H3 antibody. Unconjugated beads (negative control) and anti B7-H3 antibody (AB) conjugated beads (positive control) were also tested for binding to soluble B7-H3 antigen.
Production of ABYB7-H3. Development of a B7-H3-binding ligand from an ABY yeast display library is described in Example 1. […] ABYB7-H3 ligand was recombinantly expressed in E. coli, purified, and functionalized with 1:1 molar ratio of biotin. […] In order to confirm binding specificity of recombinantly produced ABYB7-H3 to its target, biotinylated-ABY was immobilized to streptavidin- magnetic beads and incubated with 3 μM of recombinant soluble human B7-H3 ectodomain protein.

[3] = tested on: MS1-WT cells (MS1-Control, B7-H3-negative); assay: Cell-binding assay by flow cytometry on B7-H3-negative MS1 wild-type cells; set-up: species or system mouse
Method: (§3) For cell-binding assay, MS1 B7-H3+ cells were stained with streptavidin-APC-labeled B7-H3-affibody for 1 hour at 4° C. and analyzed with FACS. As negative control cells, MS1-WT, a negative cell line, was stained with streptavidin-APC-labeled B7-H3-affibody.
(§4) Wild-type (WT) MILE SVEN 1 mouse vascular endothelial (MS1-WT or MS1 Control) cells were directly obtained directly from the American Type Culture Collection [(CRL2279; (ATCC)] that performs standard cell line characterizations of mycoplasma, yeast, bacterial, and viral contamination. The cell line was maintained according to the recommendations of the ATCC. Cells were cultured under sterile conditions in DMEM (ATCC) with FBS at 5% and maintained in a 5% CO2-humidified atmosphere at 37° C. Cells were transfected with human B7-H3 DNA. In brief, the human B7-H3 DNA sequence was first optimized for mammalian codon usage using standard techniques. The transfection of MS1-WT cells with the B7-H3-expression vector was performed using lipofectamine 2000 transfection reagent (Life Sciences; Invitrogen), following the recommended manufacturer's standard protocol. MS1 cells stably expressing human B7-H3 (MS1 B7-H3+) were grown in DMEM containing 10% FBS and 0.4 mg/mL puromycin (G418, Sigma) in a 5% CO2 humidified atmosphere and subcultured prior to confluence using trypsin.
as §2

[4] = biological target: T3, human CD276 (B7-H3), MS1-CD276 cells (Homo sapiens, UniProt Q5ZPR3); assay: Affinity measurement by titration on MS1-CD276 cells, flow cytometry; assay type: binding
T3 construct: expressed in transfected cells; host or cells: MS1 (Mile Sven 1) mouse endothelial cells, gift from J. Willmann (Stanford)
T3 sequence (Q5ZPR3 29-534): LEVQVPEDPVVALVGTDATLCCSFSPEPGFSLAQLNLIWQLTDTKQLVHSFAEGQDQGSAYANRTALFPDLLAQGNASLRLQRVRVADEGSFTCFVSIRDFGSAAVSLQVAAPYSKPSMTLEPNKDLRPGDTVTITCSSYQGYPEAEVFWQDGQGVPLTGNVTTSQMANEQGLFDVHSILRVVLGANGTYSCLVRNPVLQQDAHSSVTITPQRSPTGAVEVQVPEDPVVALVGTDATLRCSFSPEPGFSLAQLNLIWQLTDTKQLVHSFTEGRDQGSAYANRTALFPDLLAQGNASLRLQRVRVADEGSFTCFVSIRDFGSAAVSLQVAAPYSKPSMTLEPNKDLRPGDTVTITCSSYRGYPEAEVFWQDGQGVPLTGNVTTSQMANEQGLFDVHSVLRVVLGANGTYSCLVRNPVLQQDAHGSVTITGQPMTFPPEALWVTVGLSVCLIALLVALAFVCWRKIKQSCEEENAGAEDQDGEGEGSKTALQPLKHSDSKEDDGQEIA
Method: Affinity Measurement. MS1-CD276 were grown to 70-90% confluence. Cells were washed once with 5 mL PBS, detached by trypsin-EDTA treatment for 4-7 min, quenched by the addition of serum-containing culture medium, pelleted at 500 g for 3 min, and resuspended in PBSACM Fifty thousand cells were pelleted at 500 g for 3 min at 4° C. and incubated with purified ligand at varying concentrations at 4° C. with rotation. Cells were washed once with ice cold PBSACM, pelleted at 500 g for 3 min, incubated with 1:200 dilution rabbit anti-His-tag FITC conjugate (pAb, Genscript) for 30 min at 4° C., washed once more with ice cold PBSACM, and again pelleted at 500 g for 3 min at 4° C. Fluorescence was analyzed by flow cytometry using an Accuri C6. Affibody affinity was determined through nonlinear least squares regression.

[5] = biological target: T4, human B7-H3 (MS1 B7-H3+ / MS1hB7-H3 cells) (Homo sapiens, UniProt Q5ZPR3); assay: Cell-binding assay by flow cytometry on MS1 cells expressing human B7-H3
T4 construct: expressed in transfected cells; host or cells: MS1 (MILE SVEN 1) mouse vascular endothelial cells, ATCC CRL2279
T4 sequence (Q5ZPR3 29-534): T3 sequence (Q5ZPR3 29-534)
Method: as §3, §4
ABYB7-H3 binds specifically to B7-H3. ABYB7-H3 binding to cells predominantly expressing 4lg-B7-H3 (hB7-H3) isoform and mouse cells expressing 2lg-B7-H3 (mB7-H3) isoform was tested. B7-H3 total protein as well as cell-surface expression was confirmed in MS1 mouse endothelial cells engineered to overexpress hB7-H3 (MS1hB7-H3) by western blotting and flow cytometry (FIG. 10A and B); only MS1hB7-H3 cells expressed B7-H3 protein, while both MS1WT and MS1hB7-H3 cells endogenously expressed CD31 protein, a common vascular endothelial marker, by western blot. […] ABYB7-H3 dose dependent increases in binding signal in both MS1hB7-H3 (0-10 μM) and RAW264.7 (0 25 μM) cells was observed, but not in the B7-H3-negative cells, MS1WT.

[6] = biological target: T5, hB7-H3 (THP1 cells) (Homo sapiens, UniProt Q5ZPR3); assay: Flow cytometry binding to THP1 human monocytic cells induced with PMA; settings: PMA 10 ng/mL; detected by streptavidin AF647
T5 construct: endogenous in cells; host or cells: THP1 human monocytic cell line, PMA 0 and 10 ng/mL
T5 sequence (Q5ZPR3 29-534): T3 sequence (Q5ZPR3 29-534)
From the text: as §1, with “(E) Immunofluorescence staining with ABYBY-H3-AF647 (red) and a nuclear marker, DAPI (blue), in a human breast tumor and normal breast tissue sections. Scale bar represents 100 μm. Zoomed images of insets are shown on the right panel.” left out
THP1 cells express a basal level of cell-surface hB7-H3, which was further increased upon stimulation by PMA (10 ng/mL) as detected by APC conjugated anti-B7-H3 antibody using flow cytometry (FIG. 10D).

[7] = biological target: T6, B7-H3 in human breast tumor and normal breast tissue sections (Homo sapiens, UniProt Q5ZPR3); assay: Immunofluorescence staining of human breast tissue sections with ABYB7-H3-AF647; assay type: binding; settings: ABYB7-H3 conjugated to AF647 dye
T6 construct: from tissue; host or cells: human breast tumour and normal breast tissue sections
T6 sequence (Q5ZPR3 29-534): T3 sequence (Q5ZPR3 29-534)
From the text: as §1, with “panel. […]” for “panel.”

[8] = biological target: T7, B7-H3-cell lysate (Homo sapiens, UniProt Q5ZPR3); assay: Binding to B7-H3-cell lysate; settings: Example 1
T7 construct: expressed in transfected cells; host or cells: MS1 (Mile Sven 1) mouse endothelial cells, gift from J. Willmann (Stanford)
T7 sequence (Q5ZPR3 29-534): T3 sequence (Q5ZPR3 29-534)
Method: FACS Selections with Detergent Solubilized Cell Lysates. Detergent solubilized cell lysates were prepared essentially as described. MS1-Thyl and MS1-CD276 cells were grown to 70-90% confluence in 75 cm^2 tissue culture-treated T-flasks. Culture medium was removed and the cells were washed once with 5 mL PBS. Cells were detached by trypsin-EDTA treatment for 4-7 minutes, quenched with serum-containing culture medium, and centrifuged at 500 g for 3 min. Pelleted cells were washed three times with ice cold PBS and pelleted at 300 g for 3 min at 4° C. Washed cells were resuspended in PBS with 0.5 mg/mL fresh sulfo-NHS-biotin (Thermo Fisher Scientific), rotated for 30 min at room temperature, and washed twice with ice cold PBSA to quench and remove excess biotin. Cells were resuspended in 100-200 μL FACS lysis buffer (PBS with 1% (viv) Triton X-100, 2 mM EDTA, and 1× complete protease inhibitor cocktail (Roche)) and incubated with rotation at 4° C. for 15 min, Cell debris was pelleted at 15,000 g for 30 min at 4° C. and removed. Induced yeast were washed once with PBSA, then incubated with cell lysate and mouse anti-c-Myc antibody (2.5 μg/mL) simultaneously for 2 h at 4° C. with rotation. Yeast were washed with 1 mL ice cold PBS containing 1% (v/v) Triton-X 100 and then with 1 mL ice cold PBSA. […]

[9] = Example 3, biotinylated ABY detected by streptavidin-AF647, flow cytometry

binding to mouse monocyte cell line RAW264.7 expressing mB7-H3 [1]: specifically binds
binding to soluble B7-H3 [2]: 68%
Kd [4]: 310 ± 100 nM
binding of fluorescently-labeled B7-H3-affibody after blocking of B7-H3 receptors with free B7-H3-affibody ([5]; Example 1, B7-H3-expressing cells): significantly (P<0.01) decreased binding
binding to B7-H3-expressing cells ([5]; Example 1, MS1 B7-H3+ cells, streptavidin-APC-labeled B7-H3-affibody 5-25 μM, 1 hour at 4° C., FACS): showed binding
binding to THP1 cells upon PMA-induced B7-H3 expression [6]: increased biotinylated ABYB7-H3 binding
binding to normal breast tissue sections [7]: did not bind
staining of human breast tumor tissue section [7]: stained positive
binding to B7-H3-cell lysate [8]: specific binding
Substance: ABYB7-H3: engineered B7-H3-specific affibody protein, SEQ ID NO:1 (AC2), recombinantly expressed in E. coli with His6 tag (AEAKYAKEKIFAVGEIYWLPNLTHGQIMAFIAALNDDPSQSSELLSEAKKLNDSQAPK; His6 tag)
binding to B7-H3-negative cells (MS1-Control) ([3]; Example 1, MS1-WT cells, streptavidin-APC-labeled B7-H3-affibody 5-25 μM, FACS): no binding
binding to MS1WT cells [3, 9]: not to MS1WT cells
binding to MS1hB7-H3 cells [5, 9]: specifically binds; also recorded: bound specifically

“Also recorded” adds a separate entry of the source.
